The supplement of paper PMC12217912
The other results are listed elsewhere or left out. Sequences were assembled here from the parent chain. Values near 0.05 are background.

B1: TEV protease; numbered along this chain (parent)
chain: MGESLFKGPRDYNPISSSICHLTNESDGHTTSLYGIGFGPFIITNKHLFRRNNGTLVVQSLHGVFKVKDTTTLQQHLVDGRDMIIIRMPKDFPPFPQKLKFREPQREERICLVTTNFQTKSMSSMVSDTSCTFPSGDGIFWKHWIQTKDGQCGSPLVSTRDGFIVGIHSASNFTNTNNYFTSVPKNFMELLTNQEAQQWVSGWRLNADSVLWGGHKVFMVKPEEPFQPVKEATQL

Variants of: B1
Experiment: raw area under fraction-flipped curve 0-4 h after induction (AUC4h, not background-subtracted), DNA-recorder readout of cleavage of the substrate (dimensionless); higher = more cleavage of the substrate by the protease variant
Details: temperature: 34 °C; time window: 0-4 h after rhamnose induction
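Also: Bxb1 expression induced with 0.2% (w/v) L-rhamnose at OD600 near 0.5, cultures sampled hourly, flipped fraction per protease–substrate barcode pair counted by paired-end Illumina sequencing.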

Row | Variant | area with substrate ENLYFES | area with substrate ENLYFFS | area with substrate ENLYFGS | area with substrate ENLYFIS | area with substrate ENLYFKS | area with substrate ENLYFMS | area with substrate ENLYFNS | area with substrate ENLYFPS | area with substrate ENLYFRS | area with substrate ENLYFSS | area with substrate ENLYFTS | area with substrate ENLYFVS | area with substrate ENLYFWS | area with substrate ENLYFYS | area with substrate ENLYFHS | area with substrate ENLYFLS
1 | MGESLFKGPRDYNPISSSICHLTNESDGHTTSLYGIGFGPFIITNKHLFRRNNGTLVVQSLHGVFKVKDTTTLQQHLVDGRDMIIIRMPKDFPPFPQKLKFREPQREERICLVTTNFQTKSMSSMVSDTSCTFPSGDGIFWKHWIQTKDGQCGSPLVSTRDGFIVGIHSASNFTNTNNYFTSVPKNFMELLTNQEAQQWVSGWRLNADSVLWKGHKVFMVKPEEPFQPVKEATQL [G213K] | 0.058 | 0.08 | 0.0516 | 0.0555 | 0.0516 | 0.0545 | 0.0895 | 0.0578 | 0.064 | 0.0587 | 0.0506 | 0.053 | 0.0556 | 0.0533 | – | –
2 | MGESLFKGPRDYNPISSSICHLTNESDGHTTSLYGIGFGPFIITNKHLFRRNNGTLVVQSLHGVFKVKDTTTLQQHLVDGRDMIIIRMPKDFPPFPQKLKFREPQREERICLVTTNFQTKSMSSMVSDTSCTFPSGDGIFWKHWIQTKDGQCGSPLVSTRDGFIVGIHSASNFTNTNNYFTSVPKNFMELLTNQEAQQWVPGWRLNADSVLWGGHKVFMVKPEEPFQPVKEATQL [S201P] | 0.0576 | 0.0765 | – | 0.0593 | 0.0468 | 0.0528 | – | 0.0597 | 0.0633 | 0.0574 | 0.0586 | 0.0658 | 0.0627 | 0.048 | 0.0584 | 0.0723
3 | MGESLFKGPRDYNPISSSICHLTNESDGHTTSLYGIGFGPFIITNKHLFRRNNGTLVVQSLHGVFKVKDTTTLQQHLVDGRDMIIIRMPKDFPPFPQKLKFREPQREERICLVTTNFQTKSMSSMVSDTSCTFPSGDGIFWKHWIQTKDGQCGSPLVSTRDGFIVQIHSASNFTNTNNYFTSVPKNFMELLTNQEAQQWVSGWRLNADSVLWGGHKVFMVKPEEPFQPVKEATQL [G166Q] | 0.0485 | 0.0639 | – | 0.0477 | 0.0705 | 0.0142 | 0.0546 | – | 0.0615 | 0.0636 | 0.05 | 0.0505 | – | 0.0433 | 0.0669 | –
4 | MGESLFKGPRDYNPISSSICHLTNESDGHTTSLYGIGFGPFIITNKHLFRRNNGTLVVQSLHGVFKVKDTTTLQQHLVDGRDMIIIRMPKDFPPFPQKLKFREPQREERICLVTTNFQTKSMSSMVSDTSCTFPSGDGIFWKHWIQTKDGQCGSPLVSTRDGFIVGIHSASNFTNTNNYFTSVPKNFMELLTNQEAQQWVSGWRLNADCVLWGGHKVFMVKPEEPFQPVKEATQL [S209C] | 0.0531 | 0.0747 | 0.0586 | 0.0532 | 0.0772 | 0.0742 | – | – | – | – | 0.0625 | – | 0.0599 | 0.0601 | – | –
5 | MGESLFKGPRDYNPISSSICHLTNESDGHTTSLYGIGFGPFIITNKHLFRRNNGTLVVQSLHGVFKVKDTTTLQQHLVDGRDMIIIRMPKDFPPFPQKLKFREPQREERICLVTTNFQTKSMSSMVSDTSCTFPSGDGIFWKHWIQTKDGQCGSPLVSTRDGFIVGIHSASNFTNTNNYFTSVPKNFMELLTNQEAQQWVSGWRLNADSVLWGGHKVFLVKPEEPFQPVKEATQL [M219L] | 0.0102 | – | – | 0.006 | – | – | – | 0.0561 | 0.0544 | 0.063 | – | – | 0.0532 | – | 0.054 | –
6 | MGESLFKGPRDYNPISSSICHLTNESDGHTTSLYGIGFGPFIITNKHLFRRNNGTLVVQSLHGVFKVKDTTTLQQHLVDGRDMIIIRMPKDFPPFPQKLKFREPQREERICLVTTNFQTKSMSSMVSDTSCTFPSGDGIFWKHWIQTKDGQCGSPLVSTRDGFIVGIHSASNFTNTNNYFTSVPKNFMELLTNQEAQQWVSSWRLNADSVLWGGHKVFMVKPEEPFQPVKEATQL [G202S] | 0.0557 | 0.0757 | 0.0588 | 0.0644 | – | 0.0585 | 0.0622 | 0.053 | – | 0.0565 | – | 0.0649 | 0.0563 | 0.0629 | 0.0629 | –
7 | MGESLFKGPRDYNPISSSICHLTNESDGHTTSLYGIGFGPFIITNKHLFRRNNGTLVVQSLHGVFKVKDTTTLQQHLVDGRDMIIIRMPKDFPPFPQKLKFREPQREERICLVTTNFQTKSMSSMVSDTSCTFPSGDGIFWKHWIQTMDGQCGSPLVSTRDGFIVGIHSASNFTNTNNYFTSVPKNFMELLTNQEAQQWVSGWRLNADSVLWGGHKVFMVKPEEPFQPVKEATQL [K148M] | 0.0759 | 0.0675 | – | 0.0524 | 0.0491 | 0.0739 | 0.0671 | – | 0.0699 | – | – | 0.083 | 0.0566 | 0.0591 | – | 0.0674
8 | MGESLFKGPRDYNPISSSICHLTNESDGHTTSLYGIGFGPFIITNKHLFRRNNGTLVVQSLHGVFKVKDTTTLQQHLVDGRDMIIIRMPKDFPPFPQKLKFREPQREERICLVTTNFQTKSMSSMVSDTSCTFPSGDGIFWKHWIQTKDGQCGSPLVSGRDGFIVGIHSASNFTNTNNYFTSVPKNFMELLTNQEAQQWVSGWRLNADSVLWGGHKVFMVKPEEPFQPVKEATQL [T159G] | 0.0623 | 0.0663 | 0.0663 | 0.0548 | – | 0.0762 | 0.0731 | 0.0558 | 0.0649 | 0.0603 | 0.0481 | 0.0418 | 0.055 | – | 0.0397 | –
9 | MGESLFKGPRDYNPISSSICHLTNESDGHTTSLYGIGFGPFIITNKHLFRRNNGTLVVQSLHGVFKVKDTTTLQQHLVDGRDMIIIRMPKDFPPFPQKLKFREPQREERICLVTTNFQTKSMSSMVSDTSCTFPSGDGIFWKHWIQTKDGQCGSPLVSTRDGFIVGIHSASNFTNTNNYFTWVPKNFMELLTNQEAQQWVSGWRLNADSVLWGGHKVFMVKPEEPFQPVKEATQL [S182W] | – | 0.0737 | – | 0.0542 | 0.0578 | 0.0509 | 0.066 | 0.0583 | – | 0.0876 | – | – | 0.0311 | 0.0764 | 0.0478 | –
